Experimental data: PubChem BioAssay AID1347165 (National Center for Advancing Translational Sciences (NCATS), 2019)
“And” between values parts separate entries of the source, which are not always exact repeats. Equal values may be shown once. Screen size: about 220,000 compounds; about 5,700 (2.6%) were called active. Inconclusive means that the source gave no clear call. Such entries were picked first, then a sample of the others. Calls follow the shape of the dose curve; as a rule, active = well fitted inhibition curve with a large enough effect; inconclusive = small, poorly fitted or top-dose-only effect; inactive = no such curve, though single readings can be large or run the other way. Potencies beside an inconclusive call are fits to weak or partial responses and may not hold up.

biological target: Lysine-specific demethylase 5B (Homo sapiens) (UniProt Q9UGL1); test: Primary screen for KDM5B Histone Demethylases FDH-coupled qHTS; settings: FDH-coupled NADH fluorescence (FDH is formaldehyde dehydrogenase); activity change, negative = inhibition: at 57.7 µM (top of the series) unless noted; also: nearly all actives have a fitted effect of over 70% in size; as to activity change, negative = inhibition: 0% is about no effect
Summary of the method: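 qHTS format, multiple compound concentrations. Buffer 50 mM HEPES pH 7.5/0.01% Tween-20; 200 nM KDM5BΔAP final; 10 min compound preincubation; substrate-mix levels 12.5 µM peptide, 25 µM α-KG, 0.25 mM NAD⁺; 30 min RT; ΔRFU.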
Potency is read from the fitted curve at half-maximal effect; tags tell the direction and shape of the fitted curve.

Chain of UniProt Q9UGL1 (Q9UGL1 whole entry, looked up): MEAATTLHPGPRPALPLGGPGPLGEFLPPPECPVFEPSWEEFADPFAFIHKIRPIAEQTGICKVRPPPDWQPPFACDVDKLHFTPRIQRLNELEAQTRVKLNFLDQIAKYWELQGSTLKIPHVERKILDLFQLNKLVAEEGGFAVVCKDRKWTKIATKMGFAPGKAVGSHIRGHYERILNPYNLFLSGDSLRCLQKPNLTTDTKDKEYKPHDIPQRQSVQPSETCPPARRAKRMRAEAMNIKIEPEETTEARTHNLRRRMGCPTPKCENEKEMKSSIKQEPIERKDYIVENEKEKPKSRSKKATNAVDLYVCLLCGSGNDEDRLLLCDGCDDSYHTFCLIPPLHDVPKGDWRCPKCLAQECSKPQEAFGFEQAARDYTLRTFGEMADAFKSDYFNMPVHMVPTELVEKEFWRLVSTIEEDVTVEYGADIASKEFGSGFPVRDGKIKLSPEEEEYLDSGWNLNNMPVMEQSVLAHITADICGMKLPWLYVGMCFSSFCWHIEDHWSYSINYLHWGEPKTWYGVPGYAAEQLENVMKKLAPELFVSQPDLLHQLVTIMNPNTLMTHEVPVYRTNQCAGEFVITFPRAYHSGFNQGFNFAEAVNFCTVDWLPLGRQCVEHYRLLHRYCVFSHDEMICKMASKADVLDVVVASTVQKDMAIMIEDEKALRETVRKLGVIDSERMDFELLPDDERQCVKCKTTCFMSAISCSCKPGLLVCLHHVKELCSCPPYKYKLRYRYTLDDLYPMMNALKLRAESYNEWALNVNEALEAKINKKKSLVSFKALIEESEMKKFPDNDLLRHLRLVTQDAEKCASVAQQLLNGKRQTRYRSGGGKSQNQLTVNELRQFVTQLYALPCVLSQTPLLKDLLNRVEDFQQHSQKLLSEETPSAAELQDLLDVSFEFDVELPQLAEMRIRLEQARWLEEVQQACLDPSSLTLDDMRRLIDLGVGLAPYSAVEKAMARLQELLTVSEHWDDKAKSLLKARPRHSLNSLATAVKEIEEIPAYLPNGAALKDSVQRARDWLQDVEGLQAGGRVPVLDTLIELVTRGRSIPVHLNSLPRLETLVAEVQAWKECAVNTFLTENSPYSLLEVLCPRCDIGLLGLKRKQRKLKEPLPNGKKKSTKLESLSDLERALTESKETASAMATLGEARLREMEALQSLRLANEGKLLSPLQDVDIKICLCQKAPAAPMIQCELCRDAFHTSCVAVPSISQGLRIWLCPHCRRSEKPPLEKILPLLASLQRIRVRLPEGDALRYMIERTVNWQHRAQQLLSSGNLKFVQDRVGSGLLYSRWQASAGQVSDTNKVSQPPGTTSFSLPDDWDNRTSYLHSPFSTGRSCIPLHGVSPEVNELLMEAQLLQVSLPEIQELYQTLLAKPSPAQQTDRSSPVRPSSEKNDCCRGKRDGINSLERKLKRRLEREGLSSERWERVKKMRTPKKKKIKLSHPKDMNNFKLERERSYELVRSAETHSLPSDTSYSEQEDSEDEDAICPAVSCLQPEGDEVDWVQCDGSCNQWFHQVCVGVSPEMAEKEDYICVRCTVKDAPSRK

Row | Structure (SMILES) | Potency | activity change, negative = inhibition
1 | Cc1cc(-c2cccc(OC(C)C)c2)cnc1-n1cnnc1 | inconclusive: 14.1 µM [inhibitor, partial curve] | 
2 | COc1ccc(NC2CCCN(C(=O)c3cn(CCCN)nn3)C2)cc1 (stereo not given) | inconclusive: 25.1 µM [inhibitor, partial curve] | 
3 | COc1ccc(C)cc1-c1ccc(COc2ccc3c(cnn3CCC(=O)O)c2)cc1 | inconclusive: 50.1 µM [inhibitor, single point] | 
4 | Cn1cnc2cc(-c3cccc4[nH]ccc34)cc(C(=O)NCc3cccnc3)c21 | inconclusive: 35.5 µM [inhibitor, single point] | 
5 | Cc1ccc(NC(=O)Nc2ccc(C)n(CC(=O)NCCC(C)C)c2=O)cc1 | inconclusive: 17.8 µM [inhibitor, single point] | 
6 | COc1ccc(/C=C/c2ccc3ccccc3n2)cc1OC | inconclusive: 22.4 µM [inhibitor, partial curve, poor fit] | 
7 | CCS(=O)(=O)c1nc(S(=O)(=O)c2ccc(C)cc2)c(NC(C)C)s1 | inconclusive: 35.5 µM [inhibitor, single point] | 
8 | O=C(CSc1nnc2[nH]c(=O)cc(-c3ccccc3)n12)Nc1cc(C(F)(F)F)ccc1Cl | inconclusive: 35.5 µM [inhibitor, partial curve, poor fit] | 
9 | COC(=O)C1=C(C)N(C(C)C)C(=O)C1(NC(=O)C1CC1)C(F)(F)F (stereo not given) | inactive | 
10 | CCOC(=O)c1c(NC(=O)CCCN2CCCCC2)sc2c1CC(C)(C)OC2 | inactive | 
11 | Cc1nn(CC(=O)Nc2ccccc2)c(=O)c2ccccc12 | inconclusive: 31.6 µM [inhibitor, partial curve, poor fit] | 
12 | C=CCO[C@@H]1CCN2C(=O)c3cc(-c4ccc(F)cc4F)ccc3NC(=O)[C@H]12 | inconclusive: 35.5 µM [inhibitor, single point] | 
13 | CCOc1ccc(CNC(=O)c2ccc(Sc3ccc(Cl)cc3)c(NC(C)=O)c2)cc1OC | inconclusive: 17.8 µM [inhibitor, partial curve, poor fit] | 
14 | CC1(c2ccccc2)N(Cc2ccccc2C#N)C(=O)OC12CCN(C(=O)CCc1cccnc1)CC2 (stereo not given) | inconclusive: 35.5 µM [inhibitor, partial curve, poor fit] | 
15 | FC(F)(F)c1cc(-c2cccs2)nc(NC2CCCCC2)n1 | inconclusive: 22.4 µM [inhibitor, single point] | 
16 | CCOC(=O)c1sc(NC(=O)c2cc(-c3ccc(F)cc3)on2)c(C(=O)OCC)c1C | inconclusive: 35.5 µM [inhibitor, single point] | 
17 | CCCOc1ccc(/C=C2/C(=O)ON=C2C)cc1OCC | inconclusive: 8.91 µM [inhibitor, partial curve, poor fit] | 
18 | Cc1ccc(NC(=O)CCn2ccn3nc4c(c3c2=O)CCCC4)cc1C | inactive | 
19 | O=C1C(=C2SCCS2)CCc2ccccc21 |  | inconclusive: -62% [inhibitor]
20 | CC(C(=O)NCCc1noc(-c2cccnc2)n1)c1ccccc1 (stereo not given) | inactive | 

Row | Structure (SMILES) | Potency | activity change, negative = inhibition
21 | COC(=O)[C@@H]1Cc2nc[nH]c2CN1Cc1ccc(NC(C)=O)cc1 | inconclusive: 35.5 µM [inhibitor, partial curve, poor fit] | 
22 | Cc1ccccc1-c1nc2cc(NC(=O)COc3ccc(F)cc3)ccc2o1 | inconclusive: 28.2 µM [inhibitor, partial curve, poor fit] | 
23 | CC1=C(C(=O)Nc2ccc(C)cc2C)C(c2ccccc2)n2ncc(C(=O)Nc3ccccc3)c2N1 (stereo not given) | inconclusive: 25.1 µM [inhibitor, single point] | 
24 | O=C(NCc1ccccc1)N1CCC(Cc2nc(C3CC3)n[nH]2)C1 (stereo not given) | inactive | 
25 | CCCCc1ccc(NC(=S)NCCCOC(C)C)cc1 | inactive | 
26 | CCc1ccc(NC(=O)Cn2c(=O)c(-c3noc(CC)n3)c3n(c2=O)CCCC3)cc1 | inactive | 
27 | COc1cccc(CN2Cc3cc(NC(=O)Cc4cccs4)ccc3OC(C)C2=O)c1OC (stereo not given) | inconclusive: 22.4 µM [inhibitor, partial curve] | 
28 | O=C(Nc1cccc(Cl)c1)c1ccc(Cn2c(=O)c3cccn3c3cccnc32)cc1 | inactive | 
29 | CCC(C(=O)Nc1cc(-c2nc3cccnc3s2)ccc1C)c1ccccc1 (stereo not given) | inconclusive: 15.8 µM [inhibitor, partial curve, poor fit] | 
30 | Cc1nc(C(=O)NCCO)cc2c1[nH]c1ccccc12 | inconclusive: 28.2 µM [inhibitor, partial curve, poor fit] | 
31 | Cc1cccc(-n2ncc3c(NC4CCCC4)ncnc32)c1 | inconclusive: 14.1 µM [inhibitor, partial curve, poor fit] and inconclusive: 28.2 µM [inhibitor, single point] | 
32 | Cc1cn2nnc(C(=O)NCCC3=CCCCC3)c2c(=O)[nH]1 | inactive | 
33 | CCOc1ccc(-c2nnc(SCC(=O)NCc3ccc(C)cc3)nc2-c2ccc(OCC)cc2)cc1 | inconclusive: 12.6 µM [inhibitor, partial curve, poor fit] | 
34 | CCC(CC)C(=O)Nc1cccc(-c2nc3ccccc3s2)c1 | inconclusive: 15.8 µM [inhibitor, partial curve, poor fit] | 
35 | CC1CCN([C@@H]2[C@H](O)[C@H](CO)O[C@@H]2CNC(=O)c2cccc(F)c2)CC1 | inconclusive: 25.1 µM [inhibitor, partial curve, poor fit] | 
36 | CC(=O)Nc1cccc(-c2cnc3[nH]cc(CC(=O)N4CCOCC4)c3c2)c1 | active: 31.6 µM | 
37 | CC(Sc1nc2cc(Cl)ccc2n1C)C(=O)NCc1ccc2c(c1)OCO2 (stereo not given) | inactive | 
38 | CCOCc1cc(CN2CCN(c3cccc(Cl)c3)CC2)c(O)c2ncccc12 | inconclusive: 50.1 µM [inhibitor, single point] | 
39 | CN(CC(=O)Nc1ccccc1Cl)CC(=O)N(CCC#N)c1ccccc1F | inconclusive: 15.8 µM [inhibitor, partial curve, poor fit] | 
40 | CC(=O)c1ccc(N2CCN(S(=O)(=O)c3ccc4[nH]c5c(c4c3)CCCC5)CC2)cc1 | inconclusive: 11.2 µM [inhibitor, partial curve, poor fit] | 
